According to the supplement of paper PMC9446081:
The campaign covered roughly 39,000 compounds. About 220 (0.56%) showed activity. This is one part of the list.

The molecules below were run on Escherichia coli K-12 BW25113 (assay: relative growth (OD600 normalised to plate interquartile mean) (fraction); higher = less growth inhibition, active = 0.2 or less). Settings: 50 µM; LB; incubation time: overnight (16-24 h).
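Further: static incubation at 37 °C against the wild-type strain, values averaged over two biological replicates.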

| Compound | relative growth |
| --- | --- |
| Cc1ccc(S(=O)(=O)Nc2ccc3c(c2)C(=O)N([C@@H](C)CO)C[C@@H](C)[C@H](CN(C)C(=O)C2CCCCC2)OCCCC[C@H](C)O3)cc1 | inactive: 1.01 |
| Cc1ccc(S(=O)(=O)N(C)C[C@@H]2Oc3cc(C#Cc4ccccc4)ccc3S(=O)(=O)N([C@@H](C)CO)C[C@H]2C)cc1 | inactive: 1.04 |
| Cc1ccc(S(=O)(=O)Nc2ccc3c(c2)C(=O)N([C@H](C)CO)C[C@H](C)[C@@H](CN(C)Cc2ccc(C(F)(F)F)cc2)O3)cc1 | inactive: 1.01 |
| CCCC(=O)Nc1ccc2c(c1)C(=O)N(C)C[C@@H](OC)[C@H](C)CN(S(=O)(=O)c1cn(C)cn1)[C@@H](C)CO2 | inactive: 0.983 |
| COc1ccc(S(=O)(=O)Nc2ccc3c(c2)C(=O)N([C@@H](C)CO)C[C@H](C)[C@H](CN(C)C(=O)C2CCCCC2)OCCCC[C@H](C)O3)cc1 | inactive: 1.04 |
| C[C@H](CO)N1C[C@H](C)[C@H](CN(C)Cc2ccc(C(=O)Nc3ccccc3N)cc2)Oc2ccc(NC(=O)Nc3ccc(C(F)(F)F)cc3)cc2CC1=O | inactive: 1.03 |
| CN(C)CCCNC(=O)C[C@H]1C=C[C@H](NC(=O)Cc2cccnc2)[C@@H](CO)O1 | inactive: 1.01 |
| C[C@@H]1CN([C@@H](C)CO)C(=O)Cc2cc(NC(=O)CCN3CCOCC3)ccc2O[C@H]1CN(C)Cc1ccc(C(=O)O)cc1 | inactive: 1.01 |
| Cc1ccccc1S(=O)(=O)N1C[C@@H](O)COC[C@H]2O[C@@H](CC(=O)NCc3ccccc3Cl)CC[C@@H]21 | inactive: 0.987 |
| CN1C(=O)c2cc(NC(=O)c3cnccn3)ccc2OC[C@@H]2O[C@H](CC(=O)N[C@@H]3CCN(Cc4ccccc4)C3)CC[C@@H]21 | inactive: 0.988 |
| Oc1c(Br)cc(Br)c2cccnc12 | inactive: 0.379 |
| COCC(=O)N1C[C@@H](C)[C@@H](OC)CN(C)C(=O)c2ccc(NC(=O)c3ccc(F)cc3)cc2OC[C@@H]1C | inactive: 1.01 |
| C[C@@H]1CCCCO[C@@H](CN(C)CC2CCCCC2)[C@@H](C)CN([C@H](C)CO)C(=O)c2cc(NC(=O)Nc3ccc(F)cc3)ccc2O1 | inactive: 1.03 |
| COc1ccc(NC(=O)Nc2ccc3c(c2)C(=O)N([C@@H](C)CO)C[C@H](C)[C@@H](CN(C)C(=O)Nc2ccccc2)OCCCC[C@H](C)O3)cc1 | inactive: 1.02 |
| C[C@@H](O[C@H]1OCCN(Cc2n[nH]nc2CN(C)C)[C@H]1c1ccc(F)cc1)c1cc(C(F)(F)F)cc(C(F)(F)F)c1 | inactive: 0.916 |
| CCCC#Cc1cnc2c(c1)C(=O)N([C@@H](C)CO)C[C@@H](C)[C@H](CN(C)C(=O)c1ccc3c(c1)OCO3)O2 | inactive: 1.01 |
| O=C(C[C@H]1CC[C@@H]2[C@H](COC[C@@H](O)CN2Cc2cccc(C(F)(F)F)c2)O1)NCCc1ccncc1 | inactive: 1.01 |
| Cc1noc(C)c1NC(=O)N(C)C[C@@H]1Oc2c(NC(=O)Nc3cccc4ccccc34)cccc2C(=O)N([C@@H](C)CO)C[C@H]1C | inactive: 1.01 |

| Compound | relative growth |
| --- | --- |
| COc1ccc(NC(=O)Nc2ccc3c(c2)C(=O)N([C@H](C)CO)C[C@H](C)[C@@H](CN(C)C(=O)Nc2ccc(OC)cc2)OCCCC[C@H](C)O3)cc1 | inactive: 1.01 |
| COc1cccc(S(=O)(=O)N(C)C[C@H]2Oc3ncc(C#CCN(C)C)cc3C(=O)N([C@H](C)CO)C[C@H]2C)c1 | inactive: 0.987 |
| C[C@@H]1CCCCO[C@H](CN(C)C)[C@H](C)CN([C@H](C)CO)C(=O)c2cc(NC(=O)CCCN(C)C)ccc2O1 | inactive: 0.974 |
| CN(C)CCCNC(=O)C[C@H]1CC[C@H]2[C@@H](COC[C@@H](O)CN2S(=O)(=O)c2ccc(F)cc2)O1 | inactive: 0.982 |
| C[C@@H]1CN([C@@H](C)CO)C(=O)c2cc(NC(=O)Cc3ccccc3)ccc2O[C@@H]1CN(C)Cc1ccc(Oc2ccccc2)cc1 | inactive: 1 |
| C[C@H]1CN([C@@H](C)CO)C(=O)c2cc(NC(=O)CCCN(C)C)ccc2O[C@H]1CN(C)S(=O)(=O)c1ccc(Cl)cc1 | inactive: 1.02 |
| C[C@@H]1CCCCO[C@H](CN(C)Cc2ccc(C(=O)O)cc2)[C@@H](C)CN([C@H](C)CO)C(=O)c2cc(NS(=O)(=O)c3ccccc3)ccc2O1 | inactive: 0.959 |
| C[C@@H]1CCCCO[C@H](CN(C)C(=O)C2CCCCC2)[C@H](C)CN([C@@H](C)CO)C(=O)c2cc(NS(=O)(=O)c3ccccc3)ccc2O1 | inactive: 0.977 |
| C[C@@H]1CN([C@@H](C)CO)C(=O)c2cc(NC(=O)NC3CCCCC3)ccc2O[C@@H](C)CCCCO[C@H]1CN(C)Cc1ccc(Cl)c(Cl)c1 | inactive: 1.02 |
| O=C(O)C[C@H]1Nc2ccccc2NC1=O | inactive: 0.999 |
| CN1CCN(C(=O)C[C@H]2C=C[C@H](NC(=O)c3ccc4c(c3)OCO4)[C@@H](CO)O2)CC1 | inactive: 0.97 |
| C[C@H]1CN([C@@H](C)CO)C(=O)c2cc(NC(=O)Nc3ccc(C(F)(F)F)cc3)ccc2O[C@H]1CN(C)Cc1ccc(Cl)c(Cl)c1 | inactive: 1 |
| Cc1cc(C(=O)Nc2cccc3c2O[C@H](CN(C)C(=O)Nc2ccc4c(c2)OCO4)[C@H](C)CN([C@@H](C)CO)C3=O)n(C)n1 | inactive: 0.998 |
| C[C@H]1CN([C@@H](C)CO)C(=O)c2c(c3ccccc3n2C)-c2ccccc2CO[C@H]1CN(C)S(=O)(=O)c1cn(C)cn1 | inactive: 0.991 |
| Cc1noc(C)c1NC(=O)N(C)C[C@H]1Oc2ccc(NS(C)(=O)=O)cc2CC(=O)N([C@@H](C)CO)C[C@H]1C | inactive: 0.999 |
| Cc1noc(C)c1NC(=O)N(C)C[C@H]1OCCCC[C@@H](C)Oc2ccc(NC(=O)CCC(F)(F)F)cc2C(=O)N([C@H](C)CO)C[C@@H]1C | inactive: 0.987 |
| COc1ccc(NC(=O)Nc2ccc3c(c2)CC(=O)N([C@H](C)CO)C[C@@H](C)[C@@H](CN(C)S(=O)(=O)c2cn(C)cn2)O3)cc1 | inactive: 1.01 |
| COCC(=O)Nc1ccc2c(c1)C(=O)N(C)[C@@H]1CC[C@@H](CC(=O)NCc3ccccc3Cl)O[C@@H]1CO2 | inactive: 1.01 |
